Experimental findings from PubChem BioAssay AID1159614 (National Center for Advancing Translational Sciences (NCATS), 2016) are described below.

About 65 (0.1%) of roughly 45,000 compounds were called active. Calls come from the whole dose curve; as a rule, active = well fitted activation curve with a large enough effect; inconclusive = small, poorly fitted or top-dose-only effect; inactive = no such curve, though single readings can be large or run the other way. This is one part of the list.

The test concerns the target Galactocerebrosidase (Homo sapiens) (UniProt P54803). Briefly: A Novel Cell-Based Assay to Identify Small Molecules for B -Galactocerebrosidase. Note: 0% is about no effect; nearly all actives have a fitted effect of over 65% in size. Particulars: 145M-Twi-hGALC-G270D cells (Twitcher mouse brain line with human GALC G270D), HMU-beta-Gal fluorescence, 48 h; series mostly up to 57.5 µM; activation: at the top concentration. The method, boiled down: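 Brain-derived Twitcher mouse 145M-Twi cells stably expressing human GALC-G270D or wild-type GALC, treated live, then residual GALC activity read by fluorescence of HMU-b-Gal substrate (0.1 mM final) in citrate-phosphate buffer pH 5.2 with sodium taurocholate. Signal increase indicates enhancement.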
Chain of UniProt P54803 (P54803 whole entry, looked up): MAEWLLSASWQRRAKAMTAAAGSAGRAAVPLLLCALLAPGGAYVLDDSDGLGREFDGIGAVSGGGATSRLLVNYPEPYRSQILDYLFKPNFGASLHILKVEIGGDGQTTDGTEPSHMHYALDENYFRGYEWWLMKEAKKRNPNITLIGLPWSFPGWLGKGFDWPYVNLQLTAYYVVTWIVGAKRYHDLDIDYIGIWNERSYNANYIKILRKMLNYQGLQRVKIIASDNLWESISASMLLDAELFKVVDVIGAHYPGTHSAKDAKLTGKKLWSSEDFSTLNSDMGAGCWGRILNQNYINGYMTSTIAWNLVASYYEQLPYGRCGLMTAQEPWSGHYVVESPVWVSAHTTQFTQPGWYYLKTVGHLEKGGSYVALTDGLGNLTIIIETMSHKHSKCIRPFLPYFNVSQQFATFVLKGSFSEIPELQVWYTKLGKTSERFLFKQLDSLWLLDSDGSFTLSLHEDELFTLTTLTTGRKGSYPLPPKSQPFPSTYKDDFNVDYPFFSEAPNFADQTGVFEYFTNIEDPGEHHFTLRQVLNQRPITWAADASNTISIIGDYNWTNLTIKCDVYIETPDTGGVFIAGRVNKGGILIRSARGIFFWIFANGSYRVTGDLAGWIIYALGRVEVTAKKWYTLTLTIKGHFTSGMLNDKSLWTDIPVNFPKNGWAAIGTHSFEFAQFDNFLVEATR
For the molecule `CCOc1ccc(-c2nc(CNC(=O)NC3CCCCC3)c(C)o2)cc1`, the “activation” value was inactive: 4.77%.

Turning to `CCN(CC)CCNc1ncnc2c1cnn2-c1cc(Cl)ccc1C`, the “activation” value is inactive: -21.5%.

For `CCNc1nc(N)nc(Oc2ccc(OCC(=O)OC)nn2)n1`, the “activation” value was inactive: -19.1%.

Regarding `Cc1ccc(C(=O)Nc2nc3nc(C)cc(=O)n3[nH]2)cc1`, the “activation” value is inactive: -15.1%.

As for `COc1ccc(CCNS(=O)(=O)c2cc(-c3cc(C)no3)ccc2OC)cc1OC`, the “activation” value was inactive: -20.9%.

On to `O=C(CCc1ccccc1)N(Cc1cccnc1)c1nc2c(F)cc(F)cc2s1`, for which the “activation” value is inactive: -14.3%.

As to `CCOc1ccc(OCc2ccc(C(=O)Nc3cc(OC)c(OC)c(OC)c3)o2)cc1`, the “activation” value was inactive: -9.19%.

With `CC(C)c1ccc(-c2noc(SCC(=O)N3CCN(c4ccc(F)cc4)CC3)n2)cc1`, the “activation” value is inactive: -19%.

Consider `Cc1ccc(C)c(Nc2nn3c(=O)c4ccc(C(=O)NCCC5=CCCCC5)cc4nc3s2)c1`, for which the “activation” value is inactive: -13.3%.

As to `Cc1ccc(N2CC(C(=O)NCCS(=O)(=O)N3CCN(c4ccccc4)CC3)CC2=O)cc1C` (centres undefined), the “activation” value is inactive: -2.94%.

As for `CCc1nnc(NS(=O)(=O)c2ccc(N)cc2)s1`, the “activation” value was inactive: -19.9%.

In the case of `O=C(NCCc1csc(-c2ccc(Cl)cc2)n1)c1ccco1`, the “activation” value is inactive: -5.09%.

Consider `Cc1cccc2nc(-c3ccc(N(C)C)cc3)c(Nc3ccc4c(c3)OCO4)n12`, for which the “activation” value is inactive: -11.4%.

As to `COc1ccc(CCNc2nc3ccc(Cl)cc3n3cnnc23)cc1OC`, the “activation” value is inactive: -0.0867%.

Turning to `CCCN(C(=O)C(=O)Nc1ccc2nc3n(c(=O)c2c1)CCCCC3)c1ccc(OCC)cc1`, the “activation” value was inactive: -10.9%.

For the molecule `COc1cccc(CNC(=O)CSc2nc(=O)[nH]c3c2CCC3)c1`, the “activation” value is inactive: -5.2%.

For the molecule `CCOc1ccccc1C(=O)Nc1cccc2ccc(C)nc12`, the “activation” value is inactive: -8.59%.

With `COc1cc(C2CC(=O)c3c([nH]c(C(=O)OCc4ccc(C)cc4)c3C)C2)cc(OC)c1OC` (centres undefined), the “activation” value is inactive: -13.4%.

Turning to `COc1cc(NC(=O)c2cc(Cl)ccc2Cl)ccc1NC(=O)c1cc2ccccc2o1`, the “activation” value was inactive: -14.7%.

As to `COc1ccccc1-c1nnc(C2CCN(C(=O)c3cccc(Cl)c3)CC2)o1`, the “activation” value was inactive: -13.7%.

`CCOC(=O)c1ccccc1NC(=O)Cn1c(=O)n(CCC(=O)N2CCc3ccccc3C2)c(=O)c2ccccc21`: the “activation” value was inactive: -12.2%.

Turning to `Cc1cccc(C(c2sc3nc(-c4ccco4)nn3c2O)N2CCN(Cc3ccccc3)CC2)c1` (centres undefined), the “activation” value was inactive: 18.9%.

As for `Cc1ccc(NC(=O)/C=C/c2ccc(Cl)cc2)c(Br)c1`, the “activation” value is inactive: -4.2%.

Consider `CCS(=O)(=O)N1CCc2cc(C(=O)NCc3ccc(Cl)cc3)ccc21`, for which the “activation” value is inactive: -19.2%.

As to `COCCCNC(=O)c1[nH]c2ccccc2c1Sc1ccc(C)cc1`, the “activation” value was inactive: -8.55%.

With `CN(C)c1ccc(CNC(=O)c2cnc3sc(N4CCCC4)nn3c2=O)cc1`, the “activation” value was inactive: -3.82%.

As to `Cc1ccccc1NC(=O)Cn1c(=O)n(CCCCCC(=O)NCc2ccccc2Cl)c(=O)c2sccc21`, the “activation” value is inactive: -2.41%.

Consider `COc1ccc(NC(=O)c2ccc3c(SCC(=O)O)c4c(nc3c2)CCCC4)cc1OC`, for which the “activation” value is inactive: 4.09%.

On to `CCCOc1ccc(C(=O)Nc2ccc3oc(-c4ccc5ccccc5c4)nc3c2)cc1`, for which the “activation” value is inactive: -18.3%.

Consider `CC(=O)c1cccc(NC(=O)CSc2nnc3ccc(-c4ccc(F)cc4)nn23)c1`, for which the “activation” value is inactive: -6.07%.

Take `O=C(Cc1ccccc1)N(Cc1cccnc1)c1nc2ccc(Cl)cc2s1`: the “activation” value is inactive: -13.4%.

Take `Cn1c(=O)c2c(nc(Oc3ccc(C#N)cc3)n2Cc2ccc(Cl)cc2Cl)n(C)c1=O`: the “activation” value is inactive: -1.55%.

Turning to `CCOC(=O)c1ccccc1NC(=O)Cn1c(=O)n(CCC(=O)NCc2ccccc2OC)c(=O)c2ccccc21`, the “activation” value was inactive: -10.1%.

For the molecule `CCOC(=O)c1c(C)oc2ncnc(N3CCN(c4ccc(C)cc4C)CC3)c12`, the “activation” value was inactive: -9.65%.

For the molecule `O=C(NCCc1ccccc1)c1cc(-c2ccc(Br)cc2)on1`, the “activation” value was inactive: -13.4%.

Turning to `O=C(Nc1ccc(Br)cc1F)c1cc(S(=O)(=O)NC2CCCC2)ccc1F`, the “activation” value is inactive: -42.2%.

Take `CCOC(=O)c1cccc(-n2nnc3c(sc4nc(C)c(Br)c(C)c43)c2=O)c1`: the “activation” value was inactive: -14.5%.

Take `Cc1sc2ncn(CC(=O)Nc3ccc(F)cc3Cl)c(=O)c2c1S(=O)(=O)N1CCN(c2ncccn2)CC1`: the “activation” value is inactive: -10.5%.

`CCN1CCN(c2csc3ccc(F)cc3c2=O)CC1`: the “activation” value was inactive: -15%.

Turning to `CCCCN(Cc1cccs1)S(=O)(=O)c1cc(-c2cc(C)no2)ccc1C`, the “activation” value was inactive: -1.72%.

With `COc1cccc(-c2nnc3n(Cc4ccc(C)cc4)c(=O)c4ccccc4n23)c1O`, the “activation” value was inactive: -15.9%.

As for `CCOC(=O)c1c(S(=O)(=O)NCC(=O)N2CCN(c3cccc(Cl)c3)CC2)c(C)n(C)c1C`, the “activation” value is inactive: 9.68%.

For the molecule `COc1cccc(CNC(=O)c2[nH]c3cc(C)ccc3c2Sc2ccccc2)c1`, the “activation” value was inactive: -8.3%.

For `COc1ccc(-c2nc3scc(CCNS(=O)(=O)c4c(C)noc4C)n3n2)cc1OC`, the “activation” value is inactive: -12.4%.

With `Cc1cccn2c(=O)cc(CSc3nnc(NC(=O)COc4ccc(F)cc4)s3)nc12`, the “activation” value is inactive: -7.37%.

With `COc1ccc(NC(=O)c2sc3nc(C)c(C(=O)Nc4ccc(C)cc4C)c(-c4sccc4C)c3c2N)cc1`, the “activation” value is inactive: -12.7%.

With `CCc1c(CN2CCN(c3ccc(F)cc3)CC2)csc1C`, the “activation” value was inactive: -6.66%.

In the case of `COc1ccccc1-c1cc(C(F)(F)F)nc(S(=O)(=O)CCCC(=O)Nc2ccccc2F)n1`, the “activation” value is inactive: -12.7%.

As for `CC1CCc2c(N3CCC(O)CC3)c(F)cc3c(=O)c(C(=O)O)cn1c23` (centres undefined), the “activation” value was inactive: -14.4%.
